Assay results from the BET-seq Pho4 binding data (Le et al. 2018).
This is one part of the list. The energies were worked out here from pooled read counts, against the library average; single values are noisy.

molecular target: T1, Pho4 (S. cerevisiae) (UniProt P07270); test: relative binding free energy (BET-seq); higher = weaker binding; details: reference: library average
T1 sequence: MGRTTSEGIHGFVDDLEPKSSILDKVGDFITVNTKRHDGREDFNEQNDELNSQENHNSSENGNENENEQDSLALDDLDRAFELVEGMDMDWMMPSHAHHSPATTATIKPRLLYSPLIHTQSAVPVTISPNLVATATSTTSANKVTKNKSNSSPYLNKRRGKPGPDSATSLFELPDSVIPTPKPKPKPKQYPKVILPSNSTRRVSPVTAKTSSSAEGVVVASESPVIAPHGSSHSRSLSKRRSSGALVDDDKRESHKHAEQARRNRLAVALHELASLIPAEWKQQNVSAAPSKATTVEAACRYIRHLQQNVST

| Sequence | relative binding free energy [kcal/mol] |
| --- | --- |
| ACTATCACGTGAGGTG | 0.26 |
| GGGGGCACGTGGCGTT | -0.19 |
| AGATTCACGTGAGTGT | 0.4 |
| AAAAGCACGTGTTAGT | -0.08 |
| TGGTGCACGTGACGTC | 0.07 |
| TGGGACACGTGTGCTC | 0.09 |
| ATGAACACGTGCGTGT | -0.15 |
| TAGTTCACGTGCTGTA | 0.32 |
| TAGGTCACGTGAAAGT | 0.34 |
| ATGTCCACGTGTGTGG | -0.04 |
| TTCCACACGTGTGGGT | 0.01 |
| ACAGACACGTGTGGTG | -0.04 |
| GGGGTCACGTGTAAAT | 0.3 |
| TAGTGCACGTGTTAGA | -0.1 |
| TTCGTCACGTGCTGGG | 0 |
| TTTGACACGTGAGCAT | 0.26 |
| ATCTCCACGTGGTTTT | 0.12 |
| AGGGTCACGTGATGGT | 0.19 |
| ATTTCCACGTGTTGAT | -0.04 |
| TGTTGCACGTGGCAGG | -0.18 |
| GTTTTCACGTGTGTGT | 0.38 |

| Sequence | relative binding free energy [kcal/mol] |
| --- | --- |
| GTGCTCACGTGCGTTT | 0.14 |
| GGTGTCACGTGTAATG | 0.28 |
| TTGCACACGTGCTGTT | 0.03 |
| GGTTACACGTGAAGTG | 0.46 |
| GGTGACACGTGCTTGC | 0.13 |
| AGTCACACGTGTAGGG | 0.02 |
| GGTTACACGTGAGATG | 0.33 |
| TAGGGCACGTGACAGG | -0.12 |
| AGGGGCACGTGAAAAG | 0.08 |
| GGTAGCACGTGGCATT | -0.05 |
| GGCTTCACGTGGGGTA | 0.12 |
| TACATCACGTGGGTAT | 0.04 |
| GGTTGCACGTGAGGAG | 0.38 |
| TGGTGCACGTGGGTAG | -0.09 |
| TCTTTCACGTGCGGGG | 0.2 |
| GTTGTCACGTGTATGG | 0.17 |
| TAGGGCACGTGTACGA | -0.06 |
| CGATTCACGTGTGTAA | 0.26 |
| TATATCACGTGATTTT | 0.26 |
| TTGTTCACGTGAGGCA | 0.31 |
| AGAGTCACGTGCTTGT | 0.15 |

| Sequence | relative binding free energy [kcal/mol] |
| --- | --- |
| TGGAACACGTGATATG | 0.14 |
| GTATGCACGTGGTTTG | -0.03 |
| GTACTCACGTGTGGAG | 0.41 |
| AATGCCACGTGTTGGT | -0.09 |
| ACAGTCACGTGGGATT | 0.08 |
| AAGCTCACGTGGAGGT | 0.35 |
| GGAGTCACGTGAACGT | 0.39 |
| CGGGTCACGTGTGCGT | 0.09 |
| TATGTCACGTGTGGTT | 0.06 |
| TGGCGCACGTGCAAGG | -0.03 |
| GTACGCACGTGTGGTT | -0.04 |
| AGTGACACGTGTCATG | -0.02 |
| ACGTTCACGTGTGTTT | 0.29 |
| TGGAGCACGTGGTCTG | -0.12 |
| AGTTTCACGTGGACAT | 0.31 |
| TTTTTCACGTGTTAAT | 0.24 |
| TGGGACACGTGCGGAT | -0.12 |
| AGGGTCACGTGTATAC | 0.05 |
| TTAGACACGTGAATGG | 0.25 |
| GGGAGCACGTGTGACT | 0.07 |
| TAAGTCACGTGTTACT | 0.23 |
